Among all 370,000 compounds or so, about 150 (0.041%) were called active. This list was built around the results that the source calls inconclusive (neither active nor inactive); the mix of calls is not that of the screen. The call rests on the fitted dose curve; in most records, active means well fitted inhibition curve with a large enough effect; inconclusive means small, poorly fitted or top-dose-only effect; inactive means flat fitted curve, though single readings scatter. Potencies of inconclusive entries are left out as doubtful fits.
Molecular target: Beta-lactamase (Escherichia coli (strain K12)) (UniProt P00811)
Chain of UniProt P00811 (P00811 whole entry, looked up): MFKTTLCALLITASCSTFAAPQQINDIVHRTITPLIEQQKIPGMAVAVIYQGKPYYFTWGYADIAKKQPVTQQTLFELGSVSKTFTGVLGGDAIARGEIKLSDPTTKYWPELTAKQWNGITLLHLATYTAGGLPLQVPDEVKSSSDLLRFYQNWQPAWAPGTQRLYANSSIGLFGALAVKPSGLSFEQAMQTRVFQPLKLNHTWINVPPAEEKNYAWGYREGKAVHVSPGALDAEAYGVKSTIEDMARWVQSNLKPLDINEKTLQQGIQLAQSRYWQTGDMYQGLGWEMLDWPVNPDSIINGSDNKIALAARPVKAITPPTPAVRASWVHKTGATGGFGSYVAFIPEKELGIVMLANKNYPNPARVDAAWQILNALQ
Test: qHTS Inhibitors of AmpC Beta-Lactamase (assay with detergent); further: nearly all actives have a fitted effect of over 25% in size
Conditions: AmpC hydrolysis of nitrocefin, absorbance 480 nm, 0.01% Triton; series mostly up to 114 µM
Method in brief: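 AmpC (5.3 nM in the dispensed reagent) in 20 mM phosphate pH 7.0 with 0.01% (detergent screen) or 0.0001% Triton X-100 was preincubated with compounds for 15 min at room temperature. Nitrocefin was then added from an 800 uM solution, and hydrolysis was followed at 480 nm.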
Potency means the concentration at half of the fitted maximal effect; tags describe the fitted curve by direction and shape.

Question: With `O=C1/C(=C\c2ccccc2)SC(=S)N1CCC(=O)N1CCCCC1CCO` (configuration not stated) as the compound, how does the Potency read?
Answer: inactive

Question: For `CC(NC(=O)COC(=O)c1ccccc1Nc1ccccc1)c1ccccc1` (configuration not stated), which Potency is on record?
Answer: inconclusive [inhibitor, full curve, poor fit]

Question: How did the Potency turn out when `CCOC(=O)C1CCN(CC(=O)Nc2c(C(=O)OC)[nH]c3ccccc23)CC1` was run?
Answer: inconclusive [inhibitor, full curve, poor fit]

Question: With `CCc1c(C)sc(NC(=O)c2cc(-c3ccc(O)cc3)on2)c1C#N` as the compound, how does the Potency read?
Answer: inconclusive [inhibitor, partial curve, poor fit]

Question: Which Potency does the source give for `COc1cccc(C2CC(c3ccc(C)cc3)n3ncnc3N2)c1` (configuration not stated) here?
Answer: inconclusive [inhibitor, full curve]

Question: For `CC(C)(C)C1CCc2c(sc(NC(=O)c3ccncc3)c2C(N)=O)C1` (configuration not stated), which Potency is on record?
Answer: inactive

Question: For `CC(=O)N(c1ccccc1)C1SC(=O)N(c2ccccc2)C1=O` (configuration not stated), which Potency is on record?
Answer: inconclusive [inhibitor, single point]

Question: For `COc1ccc(S(=O)(=O)N2CCC(C(=O)NC3CC3)CC2)cc1Cl`, which Potency is on record?
Answer: inconclusive [inhibitor, full curve]

Question: With `Cc1ccc(C(=O)N/C(=C\Cl)P(=O)(c2ccccc2)c2ccccc2)cc1` as the compound, how does the Potency read?
Answer: inconclusive [inhibitor, full curve, poor fit]

Question: For `CN(C(=O)Nc1ccc(Cl)cc1)c1c2c(nn1C)CCCC2`, which Potency is on record?
Answer: inconclusive [inhibitor, partial curve]

Question: `O=C(COC(=O)[C@H](Cc1c[nH]c2ccccc12)NC(=O)c1cccs1)NCc1ccccc1` was tested. Which Potency did it give?
Answer: inconclusive [inhibitor, full curve, poor fit]

Question: `CC(=O)c1ccc(S(=O)(=O)N2CCn3cccc3C2C)cc1` (configuration not stated) was tested. Which Potency did it give?
Answer: inactive

Question: Which Potency does the source give for `CC(C)(O)C#Cc1ccc(CN2CCC(CO)(CCc3ccccc3)CC2)cc1` here?
Answer: inconclusive [inhibitor, partial curve, poor fit]

Question: `C/C(=N\NC(=O)C1(C)CC1(Br)Br)c1ccc(NC(=O)c2ccc(C)o2)cc1` (configuration not stated) was tested. Which Potency did it give?
Answer: inactive

Question: Which Potency does the source give for `Cn1c(=O)n(C)c2cc(N3CCCCC3)c(NC(=O)c3c(F)cccc3F)cc21` here?
Answer: inactive

Question: With `O=C(O)c1cc(S(=O)(=O)N2CCN(S(=O)(=O)c3ccccc3)CC2)ccc1Cl` as the compound, how does the Potency read?
Answer: inconclusive [inhibitor, full curve, poor fit]

Question: For `COc1ccc(S(=O)(=O)CCC(=O)NC2CCCCC2)cc1`, which Potency is on record?
Answer: inconclusive [inhibitor, partial curve]

Question: How did the Potency turn out when `OCC[C@H]1C[C@H](O)[C@@H](O)[C@@]2(Cc3ccccc3CCO2)O1` was run?
Answer: inconclusive [inhibitor, single point]

Question: With `COc1ccccc1NC(=O)CSc1nnnn1-c1ccccc1F` as the compound, how does the Potency read?
Answer: inconclusive [inhibitor, full curve, poor fit]

Question: With `Cc1cccc2cc(C(c3nnnn3CC3CCCO3)N3CCCC4(CCCCC4)C3)c(=O)[nH]c12` (configuration not stated) as the compound, how does the Potency read?
Answer: inconclusive [inhibitor, full curve, poor fit]

Question: For `CCCCCCCC[n+]1c(C)n(-c2ccccc2)c2ccc(NC(C)=O)cc21`, which Potency is on record?
Answer: inconclusive [inhibitor, full curve, poor fit]

Question: Which Potency does the source give for `C[N+]1=C(/C=C/Nc2ccccc2Cl)C(C)(C)c2ccccc21` here?
Answer: inactive

Question: For `CCCn1c(/C=C/c2cc[n+](C)cc2)nc2ccccc21`, which Potency is on record?
Answer: inconclusive [inhibitor, full curve, poor fit]

Question: With `CCc1ccc(Nc2ncc3c(n2)CC(c2ccc(OC)cc2)CC3=O)cc1` (configuration not stated) as the compound, how does the Potency read?
Answer: inactive

Question: For `O=C(CSCc1ccc([N+](=O)[O-])cc1)N/N=C/c1ccncc1`, which Potency is on record?
Answer: inactive

Question: For `COc1ccc(-c2cccc(NS(=O)(=O)c3cc(C)ccc3OC)c2)nn1`, which Potency is on record?
Answer: inactive

Question: Which Potency does the source give for `CCCCOc1ccc(C(O)(CCC)CCN2CCOCC2)cc1` (configuration not stated) here?
Answer: inactive

Question: Which Potency does the source give for `Cc1cc(-c2nc3ncccc3o2)ccc1NC(=O)c1ccc(Cl)cc1` here?
Answer: inactive

Question: How did the Potency turn out when `O=C(Nc1ccc(Cl)cc1)C(Cl)C(=O)c1ccccc1` (configuration not stated) was run?
Answer: inconclusive [inhibitor, partial curve, poor fit]

Question: How did the Potency turn out when `Cc1ccc(C)c(NC(=O)c2cc3ccccn3n2)c1` was run?
Answer: inconclusive [inhibitor, full curve, poor fit]

Question: For `O=C(Cc1ccccc1)NC(NNc1ccccc1)(C(F)(F)F)C(F)(F)F`, which Potency is on record?
Answer: inconclusive [inhibitor, single point]

Question: How did the Potency turn out when `COc1cccc(Nc2nnc(SCC(=O)Nc3sccc3C(N)=O)s2)c1` was run?
Answer: inactive

Question: With `O=C(N=Nc1c(O)n(Cc2ccccc2)c2ccccc12)c1ccc(O)cc1` as the compound, how does the Potency read?
Answer: inconclusive [inhibitor, partial curve]

Question: `Cc1cnc(NC(=O)COc2ccccc2Cl)s1` was tested. Which Potency did it give?
Answer: inconclusive [inhibitor, partial curve, poor fit]

Question: With `Cc1cccc(N2CCN(c3ncnc4onc(C)c34)CC2C)c1` (configuration not stated) as the compound, how does the Potency read?
Answer: inactive

Question: Which Potency does the source give for `COc1cccc(C(=O)NCCS(=O)(=O)N2CCCCCC2)c1` here?
Answer: inconclusive [inhibitor, partial curve, poor fit]

Question: `CCCOc1ccccc1NC(=O)Nc1ccccc1Cl` was tested. Which Potency did it give?
Answer: inconclusive [inhibitor, partial curve]

Question: With `Cc1cccc(-n2ncc3c(NCc4cccs4)ncnc32)c1` as the compound, how does the Potency read?
Answer: inconclusive [inhibitor, full curve, poor fit]

Question: How did the Potency turn out when `CCC(=O)N1CCc2cc(Br)cc(S(=O)(=O)N(CC)Cc3ccccc3)c21` was run?
Answer: inactive

Question: Which Potency does the source give for `O=C(O)c1ccc(S(=O)(=O)c2ccc([N+](=O)[O-])cc2[N+](=O)[O-])cc1` here?
Answer: inconclusive [inhibitor, partial curve, poor fit]

Question: `Cc1cc(C(=O)NC2CCCN(Cc3ccc(Cl)cc3)C2)no1` (configuration not stated) was tested. Which Potency did it give?
Answer: inconclusive [inhibitor, full curve]

Question: Which Potency does the source give for `O=C(NCS(=O)(=O)c1ccccc1)c1ccccc1` here?
Answer: inconclusive [inhibitor, full curve, poor fit]

Question: Which Potency does the source give for `COC(=O)C1=C(C)N(Cc2ccc(OC)c(OC)c2)C(=O)C1` here?
Answer: inconclusive [inhibitor, single point]

Question: Which Potency does the source give for `Cc1cc(C(=O)N/N=C(\CCC(=O)O)c2cccs2)c2ccccc2n1` here?
Answer: inconclusive [inhibitor, single point]

Question: For `COc1cc(Cl)ccc1NC(=S)N(CCCN1CCOCC1)Cc1cn(C)c2ccccc12`, which Potency is on record?
Answer: inconclusive [inhibitor, full curve, poor fit]

Question: How did the Potency turn out when `O=C(N/N=C/c1ccc[nH]1)c1sc2ccccc2c1Cl` was run?
Answer: inactive

Question: With `CCn1c(SCCC(=O)Nc2ccccc2)nnc1-c1ccc(OC)cc1` as the compound, how does the Potency read?
Answer: inconclusive [inhibitor, full curve, poor fit]

Question: Which Potency does the source give for `CCc1ccc(-c2nn(Cc3ccccc3)cc2C=O)cc1` here?
Answer: inconclusive [inhibitor, full curve]

Question: How did the Potency turn out when `Cc1ccc(C(=O)n2nc(-n3cccc3)c3c(C)cc(C)nc32)cc1` was run?
Answer: inconclusive [inhibitor, full curve, poor fit]

Question: Which Potency does the source give for `Cc1ccc(-n2c(-c3ccco3)nc3c(cnn3-c3ccc(C)cc3)c2=O)cc1` here?
Answer: inconclusive [inhibitor, full curve, poor fit]

Question: `COc1ccccc1N1CCN(C(=O)c2cc3c(C)nc4ccccc4c3o2)CC1` was tested. Which Potency did it give?
Answer: inactive

Question: With `Cc1ccc2c(c1)C(=O)C(=O)N2CC(=O)Nc1ccccc1NC(=O)c1ccccn1` as the compound, how does the Potency read?
Answer: inactive

Question: Which Potency does the source give for `CN(C)C(=O)NC1c2ccccc2-c2ccccc21` here?
Answer: inactive

Question: Which Potency does the source give for `O=C(CC1(O)C(=O)N(Cc2ccccc2)c2ccc(Br)cc21)c1ccccc1` (configuration not stated) here?
Answer: inconclusive [inhibitor, single point]

Question: `Cc1ccc(NC(=O)c2onc(C)c2Cl)cc1` was tested. Which Potency did it give?
Answer: inconclusive [inhibitor, full curve, poor fit]

Question: How did the Potency turn out when `CC(NC(=O)NC(=O)c1ccc(Cl)cc1Cl)C1CC1` (configuration not stated) was run?
Answer: inactive

Question: `O=C(CN1CCOCC1)Nc1ccc(C2CCCCC2)cc1` was tested. Which Potency did it give?
Answer: inconclusive [inhibitor, full curve, poor fit]

Question: For `O=C(c1ccco1)N1CCN(C(=O)c2snc3ccc(Cl)cc23)CC1`, which Potency is on record?
Answer: inconclusive [inhibitor, full curve, poor fit]

Question: Which Potency does the source give for `COc1ccc(CNC(=O)c2cc(C(=O)C3CC3)c[nH]2)cc1` here?
Answer: inconclusive [inhibitor, single point]

Question: With `CC(C)Oc1cccc(C(=O)Nc2ccc(N3CCN(S(C)(=O)=O)CC3)cc2)c1` as the compound, how does the Potency read?
Answer: inconclusive [inhibitor, single point]

Question: Which Potency does the source give for `CN(C)c1ccc(-c2nnn(Cc3ccccc3Br)n2)cc1` here?
Answer: inconclusive [inhibitor, full curve, poor fit]

Question: `Cc1cccc(NC(=O)c2ccccc2[N+](=O)[O-])n1` was tested. Which Potency did it give?
Answer: inconclusive [inhibitor, partial curve]

Question: How did the Potency turn out when `CC1(C)Cc2c(cnn2-c2ccccc2)C(NC(=O)CCN2CCCC2=O)C1` (configuration not stated) was run?
Answer: inactive

Question: `Cc1ccc(NC(=O)CNC(=O)CC23CC4CC(CC(C4)C2)C3)c(O)c1` was tested. Which Potency did it give?
Answer: inconclusive [inhibitor, full curve, poor fit]

Question: For `COc1ccc2[nH]c(=O)c(CN(CCO)S(=O)(=O)c3ccc4c(c3)OCCO4)cc2c1`, which Potency is on record?
Answer: inconclusive [inhibitor, single point]

Question: `CCOc1ccccc1N1C(=O)CC(Sc2nccc(C)n2)C1=O` (configuration not stated) was tested. Which Potency did it give?
Answer: inconclusive [inhibitor, full curve, poor fit]

Question: Which Potency does the source give for `O=C(CSc1cn(CCNC(=O)c2cccs2)c2ccccc12)NC1CCCC1` here?
Answer: inconclusive [inhibitor, full curve, poor fit]
